Some of the results follow. Each Rep nickase domain was tested in vitro on the same pool of single strands for 1 h at 37 °C with 3 µM enzyme; only the middle of the 90-letter strands is printed. Numbers give uncut DNA relative to the enzyme-free pool, as log2; more negative means more cut, near 0 not cut, and no call is made. Shares of all reads are compared; values above 0 arise when much of the pool is cut.
test system: T1, Rep nickase domain of tomato golden mosaic virus; assay: uncleaved DNA left, log2 of reads against the no-enzyme library (log2 ratio); higher = less cleavage (more negative = more Rep cleavage of the k-mer); sequences stand for … in CTCGTCCG…ACCGGAGA
T1 sequence (protein, residues 1-124, tag omitted): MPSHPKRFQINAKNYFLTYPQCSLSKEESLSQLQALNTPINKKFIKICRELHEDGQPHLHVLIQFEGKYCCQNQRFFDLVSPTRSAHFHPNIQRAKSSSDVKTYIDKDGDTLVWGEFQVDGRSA
Method: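 A pool of 90-nt single-stranded DNAs with seven random bases just before the constant AC of the nick site (name = the seven bases) was cut by 3 µM recombinant His6-SUMO-tagged Rep nickase domain (300 nM DNA, 50 mM HEPES pH 8.0, 50 mM NaCl, 1 mM MnCl2, 1 h, 37 °C, three replicates). Uncut DNA was amplified and sequenced.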

Sequence	uncleaved DNA left (log2)
TTTACAG	-0.035
TCCTGGA	0.0424
AAACTTT	-0.286
CACACAC	-0.0625
ACATCGG	-0.0163
GCAGACC	0.106
GTAATCT	0.0644
TGAGCTG	0.13
AGGTGAG	-0.0522
GAACATC	0.00373
GTATATC	0.0885
TAAAAGT	-2.45
ATTCGCT	-0.123
AGAACGA	0.047
GTTCATT	0.121
GAGACTA	0.0644
GCTACGC	-0.0615
GGCTAGG	0.135
ACATTTA	0.0602
CTCAATC	-0.149

Sequence	uncleaved DNA left (log2)
GGGTAAT	0.0482
CACAGCG	-0.101
CAGTGAG	-0.355
CACATAA	0.0544
GGTGGTC	-0.0439
AATTGAT	0.0654
TACAATC	-0.0457
CTGCTTC	-0.244
CGGTCAG	0.0495
GCTAGAG	0.0708
GTACACT	0.0777
GTCTAGC	0.0312
CCGCGAA	-0.18
AAAAGCG	0.0732
ATGACTA	-0.0706
TTTTATC	-0.00434
TATTTTG	0.0725
TGTATGT	-0.0031
CGATGGT	0.134
GGGATTC	-0.129
